Assay results: patent US20180148484A1 (Pieris, published 2018)
Positions count from the first letter of the chain named.

B1: negative control of SEQ ID NO: 3 (other)
chain: ASDEEIQDVSGTWYLKAMTVDRECPEMNLESVTPMTLTTLEGGNLEAKVTMLISGRSQEVKAVLEKTDEPGKYTADGGKHVAYIIRSHVKDHYIFYSEGECHGKPVPGVWLVGRDPKNNLEALEDFEKAAGARGLSTESILIPRQSETSSPG
notes: Negative control lipocalin
B2: lipocalin mutein of SEQ ID NO: 5 (designed binder, not shown: small tags and cut ends)
chain: ASDEEIQDVSGTWYLKAMTVDEGCRPWNIFSVTPMTLTTLEGGNLEAKVTMAIDGPAQEVKAVLEKTDEPGKYTADGGKHVAYIIRSHVKDHYIFYSEGVCDGSPVPGVWLVGRDPKNNLEALEDFEKAAGARGLSTESILIPRQSETSSPG
notes: expressed in E. coli with a C-terminal Strep-tag II; also called Tlc mutein
B3: lipocalin mutein of SEQ ID NO: 6 (designed binder, not shown: small tags and cut ends)
chain: B2 chain with A1T, K61R, V81D, K117E, A129T
notes: as for B2
B4: lipocalin mutein of SEQ ID NO: 8 (designed binder, not shown: small tags and cut ends)
chain: B2 chain with A1V, K61R, K90E, K117E, A129T
notes: as for B2
B5: lipocalin mutein of SEQ ID NO: 10 (designed binder, not shown: small tags and cut ends)
chain: B2 chain with K48E, T67A, A129T, R144S, S146I
notes: as for B2
B6: lipocalin mutein of SEQ ID NO: 11 (designed binder, not shown: small tags and cut ends)
chain: B2 chain with A1T, G42D, T67A, S146I
notes: as for B2
B7: lipocalin mutein of SEQ ID NO: 7 (designed binder, not shown: small tags and cut ends)
chain: B2 chain with K61N, K90R, K117E, A129T
notes: as for B2
B8: lipocalin mutein of SEQ ID NO: 9 (designed binder, not shown: small tags and cut ends)
chain: B2 chain with T38S, S146I
notes: as for B2

Biological target: T1, human CD137 expressed on cells (human, UniProt Q07011 24-255)
T1 construct: whole, on cells; also called CHO-huCD137; CHO::hCD137
Test: FACS on CHO cells stably transfected with human CD137
Procedure: (§1) To perform the experiment, CD137-positive and negative Flp-In CHO cells were incubated with lipocalin muteins, and bound mutein was labeled using anti-lipocalin primary antibodies and fluorescently labeled secondary antibodies, which were detected by FACS analysis as described in the following.
(§2) 1×10⁵ cells per well were pre-incubated for 1 h in ice-cold PBS containing 5% fetal calf serum (PBS-FCS). Subsequently, a dilution series of lipocalin muteins and negative controls typically ranging from 10 μM to 1 nM was added to the cells and incubation was continued on ice for 1 h. Cells were washed twice in ice-cold PBS using centrifugation at 300 g and then incubated with a rabbit anti-lipocalin primary antibody (Pieris, (polyclonal rabbit anti-hNGAL and rabbit anti-hTLC; Pieris) for 30 min on ice. Cells were washed twice in ice-cold PBS, re-suspended in PBS-FCS and incubated 30 min on ice with a secondary anti-rabbit antibody labelled with the fluorescent dye Alexa488 (Life Technologies). Cells were subsequently washed and analyzed using a Guava easyCyte HT Flow cytometer. Typically, a gate was set to exclude non-viable cells and 5.000 events were recorded. Numerical results are expressed as the geometric mean of the fluorescence intensity.

Row | Binder | binding result
1 | B1 | no binding

Biological target: T2, human CD137-Fc fusion protein (Fc-fusion of the full extracellular domain of human CD137, R&D Systems 838-4B) (human, UniProt Q07011 24-186)
T2 construct: extracellular domain; Bought protein; also called huCD137-Fc; KD huCD137; not shown: Fc of human IgG (captured by an anti-human IgG-Fc antibody)
T2 sequence (looked up): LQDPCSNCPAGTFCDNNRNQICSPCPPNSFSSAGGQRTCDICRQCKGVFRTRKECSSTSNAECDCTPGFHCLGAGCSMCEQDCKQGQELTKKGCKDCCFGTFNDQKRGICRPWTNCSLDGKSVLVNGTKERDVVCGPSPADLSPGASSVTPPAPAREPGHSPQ
Test: SPR, huCD137-Fc captured via anti-human IgG-Fc antibody
Description: FIG. 1: provides typical measurements of on-rate and off-rate by surface plasmon resonance (SPR) for the interaction of various representative lipocalin muteins (SEQ ID NOs indicated in the graph) with human CD137 (Fc-fusion) as the target. The targets were immobilized via an anti-human IgG-Fc antibody, which was in turn immobilized on a sensor chip using standard amine coupling chemistry. The lipocalin muteins were employed as the soluble analyte which was flowed at different concentrations across the chip surface. […] The dissociation constants resulting from a fit (1:1 binding model) of the depicted data for all SEQ ID NOs are provided in Table 1.
Prior to the protein measurements three regeneration cycles were performed for conditioning purposes. Regeneration of the derivatized chip surface was achieved by applying 3M MgCl₂ for 60 s followed by 10 mM glycine, pH 1.7 for 180 s. Anti-human IgG-Fc antibody was utilized to immobilize huCD137-Fc in a subsequent step and taken from the human antibody capture kit (GE Healthcare, BR-1008-39). […]
HuCD137-Fc at a concentration of 0.5 μg/mL was captured on this surface for 180 s at a flow rate of 10 μL/min in HBS-EP+ buffer. […] Data were evaluated with Biacore T200 Evaluation software (V 2.0). […]

Row | Binder | binding result
2 | B1 | no binding

Biological target: T2, human CD137-Fc fusion protein …
Test: SPR (Biacore T200, 37 C), huCD137-Fc captured via anti-human IgG-Fc antibody, mutein as analyte, 1:1 model
Procedure: Prior to the protein measurements three regeneration cycles were performed for conditioning purposes. Regeneration of the derivatized chip surface was achieved by applying 3M MgCl₂ for 60 s followed by 10 mM glycine, pH 1.7 for 180 s. Anti-human IgG-Fc antibody was utilized to immobilize huCD137-Fc in a subsequent step and taken from the human antibody capture kit (GE Healthcare, BR-1008-39). It was immobilized on a CM5 sensor chip using standard amine coupling chemistry and the immobilization buffer included in the kit (10 mM sodium acetate pH 5.0), resulting in a ligand density of about 13000 resonance units (RU). The reference channel was treated accordingly.
HuCD137-Fc at a concentration of 0.5 μg/mL was captured on this surface for 180 s at a flow rate of 10 μL/min in HBS-EP+ buffer. No target protein was applied to the reference channel. Subsequently, the lipocalin muteins were applied in an appropriate dilution series in HBS-EP+ buffer at a flow rate of 30 μL/min. Regeneration of the derivatized chip surface was achieved as described above. Data were evaluated with Biacore T200 Evaluation software (V 2.0). Double referencing was used and the 1:1 Binding model was used to fit the raw data.

Row | Binder | Kd
3 | B2 | 162 nM
4 | B3 | 112 nM
5 | B4 | 151 nM
6 | B5 | 112 nM
7 | B6 | 269 nM
8 | B7 | 110 nM
9 | B8 | 209 nM

Biological target: T1, human CD137 expressed on cells
Test: FACS on CHO cells stably transfected with human CD137; anti-lipocalin primary and Alexa488 secondary antibody
Procedure: as §1, §2

Row | Binder | EC50
10 | B3 | 61.1 nM
11 | B4 | 235 nM
12 | B6 | 53 nM
13 | B7 | 67.6 nM
14 | B8 | 113 nM
